The whole screen tested about 320,000 compounds, of which about 9,100 (2.8%) were called active. This list was built around the results that the source calls inconclusive (neither active nor inactive); the mix of calls is not that of the screen. The call rests on the fitted dose curve; in most records, active means well fitted activation curve with a large enough effect; inconclusive means small, poorly fitted or top-dose-only effect; inactive means no such curve, though single readings can be large or run the other way. No potency is given beside an inconclusive call; the fits are too rough.
Assay: qHTS Assay for Rab9 Promoter Activators; further: nearly all actives have a fitted effect of over 60% in size; on activation, negative = inhibition: % of control where 0% means no effect
Conditions: Huh7 Rab9 promoter-luciferase reporter, luminescence, 24 h; series mostly up to 9.22 µM
Summary of the method: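 Luciferase signal after 10 min detection reagent at ambient indicates Rab9 promoter upregulation; stably transfected Huh7 cells were treated 24 h with compound in DMSO at 37 °C, 5% CO2.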
In the case of `CNS(=O)(=O)c1cccc(C(=O)OCC(=O)Nc2ccc(N3CCCCC3)cc2)c1`, the Potency is reported as inconclusive [activator, single point]. With `Cc1ccc(OCCC(=O)OCC(=O)NCCc2ccc(Cl)cc2)cc1` the Potency was “inactive”. For `Cc1c(CCC(=O)N[C@@H](C)C(=O)O)c(=O)oc2c(C)c3oc4c(c3cc12)CCCC4`, the Potency was “inactive”. For `CC1Oc2ccccc2C=C1/C=N/Nc1ccc(C(=O)O)cc1` (stereo not drawn), the Potency was inconclusive [activator, full curve, poor fit]. With `COc1cc(C(=O)NC2CCN(CC(=O)Nc3cccc(C)c3C)CC2)cc(OC)c1OC` the Potency was “inactive”. In the case of `C=C(C)CSc1nnc(-c2cccc(Cl)c2)n1N`, the Potency is reported as inconclusive [activator, partial curve]. With `COc1ccc(NC(=O)c2cccc(F)c2)cc1Cl` the Potency was inconclusive [activator, single point]. In the case of `Cn1cnc2cc(NC(=O)COc3ccccc3)ccc21`, the Potency is reported as “inactive”. In the case of `O=C(CSc1nc2cc(Cl)ccc2s1)c1ccco1`, the Potency is reported as inconclusive [activator, partial curve]. In the case of `COc1ccc(/[N+]([O-])=C/c2ccoc2)cc1`, the Potency is reported as inconclusive [activator, single point]. In the case of `O=C(O)c1ccc(N/N=C/c2cccc3nccnc23)cc1`, the Potency is reported as inconclusive [activator, partial curve]. With `CCc1ccc(NC(=O)c2cc(CC(C)C)on2)cc1` the Potency was inconclusive [activator, single point]. In the case of `CCOc1ccc(OCc2cccc(C(=O)N3CCOCC3)c2)cc1`, the Potency is reported as active: 0.0891 µM. In the case of `COC(=O)C1CCN(C(=O)[C@H](C)NC(=O)C2CC(=O)N(c3ccc(F)cc3)C2)CC1` (stereo partly drawn), the Potency is reported as “inactive”. In the case of `O=C(c1ccc(Cl)cc1)c1coc2ccc(O)cc12`, the Potency is reported as inconclusive [activator, single point]. In the case of `O=C(Nc1sc2c(c1C(=O)O)CCCCC2)c1ccccc1`, the Potency is reported as active: 0.891 µM. In the case of `COc1ccc(-n2c(C)cc(C(=O)NC3CCCCC3)c2C)cc1`, the Potency is reported as active: 3.55 µM. In the case of `O=C(NCCc1ccc(F)cc1)c1ccc2nccnc2c1`, the Potency is reported as active: 1.12 µM. For `COC(=O)CC(=O)CSc1nc2c(cc1C#N)CCCCC2`, the Potency was inconclusive [activator, single point]. With `CC(Cc1ccccc1)C(=O)Nc1ccc(Br)cc1` (stereo not drawn) the Potency was inconclusive [activator, single point]. For `Cc1cc(/C=C2/SC(=O)N(CC(=O)N3CCOCC3)C2=O)c(C)n1-c1ccccc1F`, the Potency was active: 1.58 µM. With `Cn1cccc1C(=O)NCCc1ccc(Cl)cc1` the Potency was active: 2.51 µM. With `Cc1c(C)c2ccc(OCC(=O)Nc3nccs3)cc2oc1=O` the Potency was active: 0.501 µM. For `O=C(CN1C(=O)COc2ccccc21)NCCC1=CCCCC1`, the Potency was inconclusive [activator, single point]. In the case of `c1ccc(COc2ccc(Nc3ncnc4nc[nH]c34)cc2)cc1`, the Potency is reported as inconclusive [activator, partial curve]. For `O=C1NC(O)=NC1(c1ccccc1)c1ccccc1`, the Potency was “inactive”. In the case of `CCN(Cc1nc2cc(Cl)ccc2c(=O)[nH]1)C(=O)C1CC(=O)N(c2cccc3ccccc23)C1` (stereo not drawn), the Potency is reported as inconclusive [activator, single point]. In the case of `O=C(CC1=NCCNC(c2ccccc2)C1)c1ccccc1O` (stereo not drawn), the Potency is reported as inconclusive [activator, partial curve]. With `COc1ccc(N2C(=O)c3ccccc3NC2c2ccc(OC)c(Cn3nnc4ccccc43)c2)cc1` (stereo not drawn) the Potency was inconclusive [activator, partial curve]. With `Cc1ccc(Nc2ncc3c(n2)CC(C)CC3=O)c(C)c1` (stereo not drawn) the Potency was inconclusive [activator, single point]. In the case of `CCc1ccc(NC(=O)C2CCN(c3ncnc4c3nc3n4CCCCC3)CC2)cc1`, the Potency is reported as “inactive”. For `O=C(Cc1ccc(Br)cc1)N1CCc2ccccc2C1`, the Potency was inconclusive [activator, partial curve]. With `COc1ccc(SCC(=O)c2cc(C)c(OC(=S)N(C)C)c(C)c2)cc1` the Potency was inconclusive [activator, single point]. In the case of `Clc1ccc(Cl)c(-c2nc(-c3ccncc3)no2)c1`, the Potency is reported as inconclusive [activator, partial curve]. For `Cc1csc(SCCN2C(=O)c3ccccc3C2=O)n1`, the Potency was inconclusive [activator, single point]. With `CCOc1ccc2c(c1)c(N=Nc1cccc(C(=O)O)c1)c(O)n2C` the Potency was inconclusive [activator, partial curve, poor fit]. With `Cc1c(C(=O)OC2CCCC2C)[nH]c2c1C(=O)CCC2` (stereo not drawn) the Potency was inconclusive [activator, partial curve]. With `CC1SCC(NC(=O)c2ccc(Cl)cc2)CS1` (stereo not drawn) the Potency was inconclusive [activator, partial curve]. With `O=C(CSc1nnnn1C1CC2C=CC1C2)Nc1ccc(C(=O)O)cc1` (stereo not drawn) the Potency was “inactive”. In the case of `COc1ccc(Nc2nc(-c3ccccc3)nc3ccccc23)c(OC)c1`, the Potency is reported as “inactive”. With `Cc1ccc(C(C)c2c(C)c([N+](=O)[O-])cc(C)c2[N+](=O)[O-])cn1` (stereo not drawn) the Potency was “inactive”. In the case of `C=CCn1c(CNc2ccc(C)cc2)nnc1SCC(=O)N/N=C/c1ccc(O)cc1O`, the Potency is reported as inconclusive [activator, single point]. In the case of `CC(C)c1ccc(C(O)Cc2nc3ccccc3n2C)cc1` (stereo not drawn), the Potency is reported as active: 3.98 µM. For `CCCc1cc(=O)oc2c(CN3CCN(C)CC3)c(O)c(Cl)cc12`, the Potency was “inactive”. In the case of `O=C(O)c1sccc1S(=O)(=O)N1CCOCC1`, the Potency is reported as “inactive”. In the case of `CC(NC(=O)CCN1C(=O)c2ccccc2C1=O)c1ccccc1` (stereo not drawn), the Potency is reported as “inactive”. In the case of `CN(Cc1cccs1)C(=O)CNC(=O)c1ccco1`, the Potency is reported as inconclusive [activator, single point]. With `O=C1/C(=C\Nc2ccccc2)CCN1c1ncccn1` the Potency was inconclusive [activator, single point]. For `Nc1ccc(-c2nc3ccccc3o2)cc1`, the Potency was inconclusive [activator, partial curve]. For `Cc1cc(N/C=C\C(=O)c2ccc(Cl)c(Cl)c2)no1`, the Potency was active: 2.82 µM. For `CCOc1ccc2nc(SCC(=O)NC3CC3)sc2c1`, the Potency was inconclusive [activator, single point]. With `COC(=O)c1ccc(CN(c2ccc(C(=O)O)c(O)c2)S(=O)(=O)c2ccc(Cl)c([N+](=O)[O-])c2)cc1` the activation, negative = inhibition was inactive: -1.7% [at 1.84 µM]. With `COCCNC(=O)c1noc2c1CCc1cc(OC)ccc1-2` the Potency was inconclusive [activator, partial curve]. For `Cc1cc(/C=C(\C#N)C(=O)NC2CC2)c(C)[nH]1`, the Potency was active: 3.16 µM. In the case of `COc1ccc(Cl)cc1NC(=O)CN(C)CC(=O)Nc1ccc(C)cc1Br`, the Potency is reported as “inactive”. In the case of `Brc1cc(Br)c2nc(-c3cccs3)ccc2c1`, the Potency is reported as inconclusive [activator, single point]. With `Cc1ccc(/C=N/n2c(-c3ccncc3)n[nH]c2=S)o1` the Potency was “inactive”. For `CCCN1C(=O)c2cccc3c(N4CCCCC4)ccc(c23)C1=O`, the Potency was inconclusive [activator, single point]. With `O=C(Nc1ccc2c(c1)CCC2)c1cnccn1` the Potency was active: 3.16 µM. In the case of `COc1ccc(-c2csc(COC(=O)C(C)(C)C)n2)cc1`, the Potency is reported as inconclusive [activator, single point]. In the case of `CCCCN(C(=O)c1c(CC)noc1C)c1c(N)n(CCCC)c(=O)[nH]c1=O`, the Potency is reported as “inactive”. For `CCOc1ccc(C(=O)CSc2nnc(N)s2)cc1`, the Potency was active: 3.16 µM. For `Cc1c2cnn(CC(=O)NC3CCCC3)c(=O)c2c(C)n1Cc1ccccc1`, the Potency was inconclusive [activator, partial curve]. With `N#CC(c1nc2ccccc2nc1N1CCCC1)S(=O)(=O)c1ccccc1` (stereo not drawn) the Potency was “inactive”. With `O=C(Cn1cc(SCc2cccc(Cl)c2)c2ccccc21)N1CCOCC1` the Potency was inconclusive [activator, single point]. In the case of `O=C(CSC(=S)N1CCOCC1)c1ccccc1`, the Potency is reported as active: 0.447 µM. In the case of `S=C(Nc1ccc2c(c1)OCO2)N1CCN(Cc2ccco2)CC1`, the Potency is reported as inconclusive [activator, partial curve]. With `CCOC(=O)c1ccc(-c2ccc(/C=N/NC(=O)Cc3nnc(N)s3)o2)cc1` the Potency was active: 3.16 µM. For `Cc1nc2c(ccc3nc(NC(=O)Cc4ccccc4)sc32)s1`, the Potency was inconclusive [activator, single point]. With `O=C(NCCCN1CCN(c2ccc(F)cc2)CC1)C1CCCN(c2ncnc3c2nc2n3CCCCC2)C1` (stereo not drawn) the Potency was inconclusive [activator, single point]. With `Cc1ccc2nc(NC(=O)c3ccccn3)sc2c1` the Potency was inconclusive [activator, partial curve]. For `Fc1ccccc1NC(=S)NCCc1cccc(Cl)c1`, the Potency was inconclusive [activator, single point]. For `CC12CCC(C(=O)N/N=C/c3ccc(O)cc3)(OC1=O)C2(C)C` (stereo not drawn), the Potency was inconclusive [activator, single point]. For `CCN(CC)C(=O)Oc1ccc2c(=O)c(-c3ccc(OC)cc3)c(C)oc2c1`, the Potency was “inactive”. With `CCc1ccc(CN(C(=O)c2cc3ccccc3oc2=O)C2CCS(=O)(=O)C2)cc1` (stereo not drawn) the Potency was active: 3.98 µM. In the case of `S=c1nc(SCc2ccccc2)[nH]c2ccccc12`, the Potency is reported as “inactive”. With `COc1ccc(OCCOC(=O)CCS(=O)(=O)c2ccc(C)cc2)cc1` the Potency was “inactive”. In the case of `CC(C)(C)c1ccc(C(=O)N2CCC(C(=O)NCC3CCCO3)CC2)cc1` (stereo not drawn), the Potency is reported as inconclusive [activator, single point].

Reference: PubChem BioAssay AID485297 (National Center for Advancing Translational Sciences (NCATS), 2010)
Potency means the concentration at half of the fitted maximal effect; tags describe the fitted curve by direction and shape.
